The text below walks through data of paper PMC4336329 (PLoS ONE, 2015).

Each structure is given as a SMILES string. In all, about 310,000 compounds went through this assay and about 14,000 (4.5%) showed an effect of 50% or more. The effect is printed as a negative number. Some of the results follow.
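Also: peak tail current of the secondary pulse compared with the same well before compound.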

Sequence of human ether-à-go-go-related gene (hERG) potassium channel (Q12809 whole entry, looked up): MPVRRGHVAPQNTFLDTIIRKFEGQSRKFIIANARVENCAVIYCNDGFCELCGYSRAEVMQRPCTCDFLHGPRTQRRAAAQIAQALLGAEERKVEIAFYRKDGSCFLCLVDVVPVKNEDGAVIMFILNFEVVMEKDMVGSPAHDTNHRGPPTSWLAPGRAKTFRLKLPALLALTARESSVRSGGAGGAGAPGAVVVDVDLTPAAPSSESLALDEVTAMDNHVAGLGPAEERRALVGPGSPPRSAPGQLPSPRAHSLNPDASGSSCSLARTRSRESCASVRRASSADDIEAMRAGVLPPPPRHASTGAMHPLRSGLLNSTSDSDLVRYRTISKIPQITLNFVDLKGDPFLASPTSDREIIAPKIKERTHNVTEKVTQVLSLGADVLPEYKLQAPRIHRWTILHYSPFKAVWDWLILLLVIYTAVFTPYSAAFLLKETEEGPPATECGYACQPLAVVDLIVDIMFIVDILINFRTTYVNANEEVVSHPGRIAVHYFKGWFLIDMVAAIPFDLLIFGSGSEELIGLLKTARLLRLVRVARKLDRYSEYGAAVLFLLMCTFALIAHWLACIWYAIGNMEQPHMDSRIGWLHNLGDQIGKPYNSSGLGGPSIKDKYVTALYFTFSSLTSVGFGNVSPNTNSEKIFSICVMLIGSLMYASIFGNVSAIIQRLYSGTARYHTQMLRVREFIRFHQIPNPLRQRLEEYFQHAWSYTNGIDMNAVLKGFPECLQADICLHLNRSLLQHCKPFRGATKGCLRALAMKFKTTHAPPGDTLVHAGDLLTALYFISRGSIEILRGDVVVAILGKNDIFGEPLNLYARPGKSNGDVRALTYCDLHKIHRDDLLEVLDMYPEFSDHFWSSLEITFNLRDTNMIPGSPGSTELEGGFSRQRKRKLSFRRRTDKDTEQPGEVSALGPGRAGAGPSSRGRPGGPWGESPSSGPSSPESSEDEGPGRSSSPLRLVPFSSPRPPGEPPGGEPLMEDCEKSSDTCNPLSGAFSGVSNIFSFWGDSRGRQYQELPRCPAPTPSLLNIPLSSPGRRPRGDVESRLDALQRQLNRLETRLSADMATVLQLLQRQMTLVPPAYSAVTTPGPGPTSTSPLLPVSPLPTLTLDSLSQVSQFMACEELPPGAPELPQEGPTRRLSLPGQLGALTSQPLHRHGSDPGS

The assay concerns the target human ether-à-go-go-related gene (hERG) potassium channel (human, UniProt Q12809). Kind of assay: primary screen, population patch clamp on CHO cells stably expressing hERG.
As to `C/C(Cc1ccccc1)=N/NC(=O)CNC(=O)C(c1ccccc1)c1ccccc1`, the “hERG current change (%, negative = inhibition) at 10uM” value is listed as 10.4%.

`CCOC(=O)N1CCN(Cc2nc(N)nc(Nc3ccc(C)cc3)n2)CC1`: the “hERG current change (%, negative = inhibition) at 10uM” value is given as -57.2%.

As to `CCOc1ccc(C(=O)C2CCN(C(=O)c3ccccc3C(=O)O)CC2)cc1`, the “hERG current change (%, negative = inhibition) at 10uM” value is reported as -5.42%.

Consider `COc1ccc(C(CC(=O)O)NC(=O)C(c2ccccc2)c2ccccc2)cc1` (centres unmarked), for which the “hERG current change (%, negative = inhibition) at 10uM” value was determined as 22.6%.

Regarding `COc1ccc(S(=O)(=O)N2CCCC2CNC(=O)C(=O)NCc2ccccc2)cc1` (centres unmarked), the “hERG current change (%, negative = inhibition) at 10uM” value is listed as -8.87%.

Turning to `COc1ccccc1CN(C)CC(=O)NC1CCCc2ccccc21` (centres unmarked), the “hERG current change (%, negative = inhibition) at 10uM” value is listed as -22.1%.

On to `COCCCNC(=O)[C@H]1N2C(=O)c3ccccc3C2SC1(C)C` (some centres unmarked), for which the “hERG current change (%, negative = inhibition) at 10uM” value is 15.3%.

In the case of `O=C(CCN1C(=O)c2cccc3cccc(c23)C1=O)NCC1CCCO1` (centres unmarked), the “hERG current change (%, negative = inhibition) at 10uM” value came to 8.96%.

For `COC(=O)c1sc(NC(=S)NC(=O)c2ccc(F)cc2)nc1C`, the “hERG current change (%, negative = inhibition) at 10uM” value is 19.1%.

With `O=C1COc2ccc(S(=O)(=O)CCC(=O)N3CCN(c4ccccc4)CC3)cc2N1`, the “hERG current change (%, negative = inhibition) at 10uM” value was -13.1%.

For the molecule `Cc1cccc(NS(=O)(=O)c2ccc(C(=O)N3CCCC3)cc2)c1C`, the “hERG current change (%, negative = inhibition) at 10uM” value is -2.28%.

For the molecule `CCOCCCNC(=O)c1ccc(Br)cc1`, the “hERG current change (%, negative = inhibition) at 10uM” value came out at 14.8%.

For the molecule `Cc1noc(C)c1C(=O)Nc1nc(-c2ccc(F)cc2)cs1`, the “hERG current change (%, negative = inhibition) at 10uM” value is listed as 0.197%.

On to `CC(=O)N1CCN(C(=O)c2cc(C)nc3ccccc23)CC1`, for which the “hERG current change (%, negative = inhibition) at 10uM” value turned out to be 31.1%.

Regarding `Cc1ccccc1CNC(=O)Cn1cnc(S(=O)(=O)N2CCCC2)c1`, the “hERG current change (%, negative = inhibition) at 10uM” value worked out at 6.06%.

As to `COc1cc(/C=N/NC(=O)c2cc(-c3ccco3)nc3ccccc23)cc(OC)c1O`, the “hERG current change (%, negative = inhibition) at 10uM” value was 4.8%.

In the case of `COc1cc(CNC(C)(C)CO)cc(Br)c1OCc1ccccc1.Cl`, the “hERG current change (%, negative = inhibition) at 10uM” value was -17.2%.

Regarding `CC(=O)c1cc2c(cc1NS(=O)(=O)c1ccc3c(c1)OCCO3)OCO2`, the “hERG current change (%, negative = inhibition) at 10uM” value was -7.12%.

For `O=C(COc1cccc(Br)c1)N/N=C/C(=O)c1ccccc1`, the “hERG current change (%, negative = inhibition) at 10uM” value is reported as -20.7%.

With `COc1cccc(CNC(=O)C2CCN(S(=O)(=O)c3ccc4c(c3)NC(=O)CO4)CC2)c1`, the “hERG current change (%, negative = inhibition) at 10uM” value turned out to be 5.08%.

`COc1ccc(Cn2c(N)c(C(=O)NCc3ccco3)c3nc4ccccc4nc32)cc1`: the “hERG current change (%, negative = inhibition) at 10uM” value worked out at 10.6%.

`COc1ccc(N/C(=N\c2nc(C)cc(C)n2)NC(=O)C(C)C)cc1OC`: the “hERG current change (%, negative = inhibition) at 10uM” value was determined as 13.6%.

`CCCCCCn1nc(C(=O)OCC(=O)NC2CCS(=O)(=O)C2)c2ccccc2c1=O` (centres unmarked): the “hERG current change (%, negative = inhibition) at 10uM” value is listed as -40.2%.

On to `CC(C)NC(=O)NC(=O)COC(=O)c1c2c(nc3ccccc13)CCC2`, for which the “hERG current change (%, negative = inhibition) at 10uM” value is reported as -4.56%.

For the molecule `CC1(C)CC(=O)C(C=NCCN2CCN(C3CC(=O)N(c4cccc(Br)c4)C3=O)CC2)=C(O)C1` (centres unmarked), the “hERG current change (%, negative = inhibition) at 10uM” value is on record as -7%.

In the case of `CC(C)(C)NC(=O)C(=O)NNC(=O)c1cccc(F)c1`, the “hERG current change (%, negative = inhibition) at 10uM” value is given as 18.1%.

With `COc1cccc(CNC(=O)Cn2cc3c(n2)CCCCC3)c1`, the “hERG current change (%, negative = inhibition) at 10uM” value was -0.591%.

With `NC(=O)CN1CCN(S(=O)(=O)c2ccc(Cl)cc2)CC1`, the “hERG current change (%, negative = inhibition) at 10uM” value is given as 9.23%.

Take `COc1ccc(-c2noc(CCC(=O)NCc3ccco3)n2)cc1`: the “hERG current change (%, negative = inhibition) at 10uM” value is reported as 5.33%.

`COC(=O)c1sccc1OCc1cccc(OC)c1`: the “hERG current change (%, negative = inhibition) at 10uM” value came to 15.3%.

As to `Clc1ccc2noc(-c3ccccc3)c2c1`, the “hERG current change (%, negative = inhibition) at 10uM” value is on record as 7.67%.

Consider `CC1CC(C)CN(CCCNC(=O)Cn2cccc2C(=O)c2ccccc2)C1` (centres unmarked), for which the “hERG current change (%, negative = inhibition) at 10uM” value was -63.1%.

As for `Cc1c(NC(=O)C2CCCCN2S(=O)(=O)c2ccc(Cl)cc2)c(=O)n(-c2ccccc2)n1C` (centres unmarked), the “hERG current change (%, negative = inhibition) at 10uM” value amounted to 2.09%.

For the molecule `COc1cccc(OC)c1C(=O)NC(=S)NCc1cccnc1`, the “hERG current change (%, negative = inhibition) at 10uM” value was 22.2%.

For the molecule `CCn1c(=O)cc(C(=O)OC)sc1=Nc1ccc(F)c(F)c1`, the “hERG current change (%, negative = inhibition) at 10uM” value is recorded as -21.8%.

With `COc1ccc(NC(=O)CCC(=O)Nc2ccc3nc(N4CCOCC4)cc(C)c3c2)c(OC)c1`, the “hERG current change (%, negative = inhibition) at 10uM” value was 16.5%.

Take `Cc1cccc(OCC(=O)NC(Cc2ccccc2)C(=O)O)c1` (centres unmarked): the “hERG current change (%, negative = inhibition) at 10uM” value amounted to 11.3%.

For `O=C(CCCCn1c(=O)c2ccccc2n(Cc2ccc(Cl)cc2)c1=O)NCc1ccco1`, the “hERG current change (%, negative = inhibition) at 10uM” value is listed as -11.5%.

Take `COc1ccccc1C1=NOC(COC(=O)c2ccc(Br)cc2)C1` (centres unmarked): the “hERG current change (%, negative = inhibition) at 10uM” value was 9.12%.

`CCC(=O)N1CCc2cc(S(=O)(=O)CCC(=O)N3CCN(c4ccc(Cl)cc4)CC3)ccc21`: the “hERG current change (%, negative = inhibition) at 10uM” value was -8.86%.

Consider `CC(=O)Nc1ccc(NC(=O)CSc2nnc(-c3ccco3)n2Cc2ccco2)cc1`, for which the “hERG current change (%, negative = inhibition) at 10uM” value is reported as -1.79%.

Regarding `CN(C)c1ccc(/C=N/NC(=O)c2sccc2-n2cccc2)cc1`, the “hERG current change (%, negative = inhibition) at 10uM” value is given as 12.2%.

As for `CC1CCCN(C(=S)NCc2ccccc2)C1` (centres unmarked), the “hERG current change (%, negative = inhibition) at 10uM” value was 8.32%.

In the case of `Cc1cccc(SCC(=O)Nc2ccccc2[N+](=O)[O-])c1`, the “hERG current change (%, negative = inhibition) at 10uM” value is 3.67%.

On to `CCC1CCCCN1CCCNC(=O)C1CC(=O)N(CCc2ccccc2)C1` (centres unmarked), for which the “hERG current change (%, negative = inhibition) at 10uM” value was 24%.

On to `O=C(Nc1cc(S(=O)(=O)N2CCOCC2)ccc1Cl)C(=O)c1c(-c2ccccc2)cc2ccccn12`, for which the “hERG current change (%, negative = inhibition) at 10uM” value was -2.22%.

In the case of `Cc1cc(NC(=O)C(C)SCC(=O)OCC(=O)N(Cc2ccccc2)C(C)(C)C)no1` (centres unmarked), the “hERG current change (%, negative = inhibition) at 10uM” value is given as -35.4%.

Turning to `Nc1cccc(-c2nc3ccc(C(=O)c4ccccc4)cc3[nH]2)c1`, the “hERG current change (%, negative = inhibition) at 10uM” value is -1.68%.

`O=C1/C(=N\O)Cc2ccccc21`: the “hERG current change (%, negative = inhibition) at 10uM” value worked out at 1.21%.

Regarding `O=C(Oc1cccc(C(=S)N2CCOCC2)c1)c1cc([N+](=O)[O-])cc([N+](=O)[O-])c1`, the “hERG current change (%, negative = inhibition) at 10uM” value is -8.63%.

Regarding `C=CCNC(=O)C(=O)N/N=C/c1cccc(Br)c1`, the “hERG current change (%, negative = inhibition) at 10uM” value came to 5.66%.

Turning to `Cc1cc(C(=O)COC(=O)C2=NN(c3ccccc3)C(=O)CC2)c(C)n1CC(F)(F)F`, the “hERG current change (%, negative = inhibition) at 10uM” value is 0.186%.

For the molecule `CC1CCN(c2nc3ccccn3c(=O)c2C=O)CC1`, the “hERG current change (%, negative = inhibition) at 10uM” value came to 10.9%.

On to `O=C(NCc1ccccc1)C(c1ccco1)N(C(=O)c1csnn1)C1CC1` (centres unmarked), for which the “hERG current change (%, negative = inhibition) at 10uM” value is recorded as 2.1%.

Turning to `O=C(COc1ccc(Cl)cc1Cl)N/N=C/c1cccnc1`, the “hERG current change (%, negative = inhibition) at 10uM” value is reported as -11.9%.

Regarding `NC(=O)c1nsc(C(=O)N(Cc2cccnc2)C(C(=O)NC2CCCC2)c2ccc(F)cc2)c1N` (centres unmarked), the “hERG current change (%, negative = inhibition) at 10uM” value is given as 3.63%.
